According to the RNAGym collection of RNA variant scans (doi:10.7554/elife.90254):
Read counts are not given, so values of variants with three or more changes are uncertain.

B1: LINE1-full (parent)
chain: UACGUAGGUGGUUUUCCCCUGAUAGUGCUAAGGGGGCCUGGAAGUUUGGACUGGGCAGAGCUCAACACAGCGUGGCAAAGUGGCUGUGGCUAGACUGCCUCUCUGGAUUCCUCGUCACUCAGCAGGGCAUCUCUGAGAGAAAUGCC

Variants of: B1
Assay: self-cleavage, relative activity (ratio to wild type); higher = more cleavage; in vitro, sequencing; the parent is a self-cleaving ribozyme

Row | Variant | self-cleavage
1 | U26A A129G A140G | 1.07
2 | A42G U47A C101A G114U | 1.06
3 | U15C A65U A94G A124U | 0.05
4 | U9C A22G U26C C37U G75C A78C U109A U115A | 0.91
5 | U87A C98U A124G | 0.06
6 | U23G U45C A136G | 1.82
7 | A57G U115A A124U A141G | 0.88
8 | U9C A59U A78U A107U U130C | 1.44
9 | A67U U85A A117U | 0.02
10 | A6U U46C U52A A59G A140G | 0.33
11 | G4A G10A A141G A142G | 1.15
12 | A77G U87C C145U | 0.44
13 | A6U U87C A141G | 0.2
14 | U26A A30G C113U A141G | 1.27
15 | A64U C68G A129U | 0.03
16 | U14C A65U U108C A129G A138G | 0.14
17 | U73A C99U A121G | 0.89
18 | U26A A79G C84A | 0.08
19 | A43G A94G U108C | 0
20 | A2G C128U U132C | 0.48
21 | C66U A78G U81A A94G C98U U108A | 0.02
22 | U119C A138U A142G | 1.1
23 | U13C G74A A77G | 0.66
24 | U12C U73C A129U | 0

Row | Variant | self-cleavage
25 | U20A A43U A77G U96A G105A | 0
26 | U13C C37U U52G C99G | 0.24
27 | A77G U91C A117U A121G U132C | 1.02
28 | A22G C51U G105A | 0.95
29 | U9A A77U U143C | 0.9
30 | U13G C38U G55U A64G | 0.22
31 | A22G U47A U108C A121U | 1.53
32 | U85A U96C A142G | 0.14
33 | G32A U47A A59G U91C U109G A138G | 0
34 | U12C U15C G34A | 0.84
35 | A2G U87A A140G | 0.24
36 | U45C G82U U119C | 2.19
37 | C3U A22G G36U U46C G83U U102C | 0.54
38 | A6G U87A A94G | 0
39 | G4C U87C U115C | 0.54
40 | U13C U46C A69G G72A A78U | 0.91
41 | U20A U26G A138G | 1.8
42 | U13C U46C A79G C84U | 0.22
43 | U39A A94G U130C | 0.08
44 | U9G G33A A50U A59G A67U U104A U109C A140G | 0.07
45 | C18U C51U A59G U109C | 0.08
46 | U14C A43U C113A | 1.01
47 | A78G U104C A141G | 1.77
48 | A77G U108G G126A | 2.19

Row | Variant | self-cleavage
49 | U45C A78G A94U A138G | 0.39
50 | G35U A79G U96A | 0.06
51 | U13C U15C G49A | 1.64
52 | A67G A79G U119C | 1.45
53 | A30U U91G U115C A136G A140G | 0
54 | A2G A78U A117G | 1.46
55 | A24G U26C A79G A141G | 0.84
56 | A6G U119A A121U | 1.07
57 | A22U U39C U102A A136G | 1.66
58 | G8A U47A U87C A117G | 1.06
59 | A6U A78U A94U U134C A140G | 0.57
60 | U20C U52C A142G | 0.63
61 | A42G U87A A138G | 0.13
62 | U47A G49A G125U | 0.76
63 | U23C G35A C38U U87C | 0.22
64 | U47C U62C A78G A79G C145U | 0
65 | G11A A92U U96C A107U U112C C120U | 0.11
66 | A78U A129U U134A | 1.63
67 | U13C U46C A78G | 1.11
68 | U1C A50G C113A A129G U132C | 0.5
69 | A2G C3U U108C | 1.19
70 | A64G A69G U87A U91A A138U C145U | 0
71 | U20A U62C U96C | 0
72 | A59G U85C U108C | 0

Row | Variant | self-cleavage
73 | U13C U47C U73G | 2.07
74 | U12C G21A U81A A129U A142G | 1.53
75 | U73C U134A A142G | 1.38
76 | U96A U100C C113A U119C | 0
77 | G36A U87C U100C U104A | 0.21
78 | A6U A31U A136U | 1.29
79 | A77G A121U A142G | 1.84
80 | U1A G40A A67G | 0
81 | A2G U13C C56U A57G | 0.6
82 | A94G A136G A142G | 0.49
83 | G4C G35A G48A | 0.78
84 | A2G U13G U14C U73A U102C A140C | 1.7
85 | G72A A79G A124G | 0.58
86 | U9A A78G C101U U104C | 1.15
87 | A57U U109A U119C | 0.13
88 | U45C G49U A57U A67G | 0.15
89 | A22U A117U A124C | 1.43
90 | U29C G72C A141G | 1.36
91 | U13G A129G U130C | 1.23
92 | A65G A78G A138G | 0.07
93 | U62A C71U U96C | 0
94 | G58U A94G U109C | 0.07
95 | U14C U52A A107U A124U | 1.33
96 | U1C G36C U52C U134C G139A | 1.6

Row | Variant | self-cleavage
97 | G8U U62C A64U U73C | 0.06
98 | A78U U115C A121G U143A | 0
99 | U15A A78U A94G G105A | 0.12
100 | U45C G74A A77G U104A A141G | 1.75
101 | A43U A57G U62A U91C U134C | 0.48
102 | G49U U96A A138G | 0.05
103 | U12C A77U A117G G127U A136G | 1.47
104 | U26A A69U U100C A142G | 0.08
105 | U15C U62C A138U | 0.13
106 | U15C U62C A138G | 0.1
107 | A6G U45A U46A G55A A69G | 0.25
108 | U73C G82A U132C | 1.87
109 | U13C U26A A138G A141G | 0.71
110 | G54A U130C A138G | 1.93
111 | A6G U12G A77U U134A | 0.8
112 | U15C U26C U100C | 2.19
113 | A50U U73A A140C | 0.98
114 | U12C U29C A59G | 0.66
115 | U9A U62G A65G A142G | 0
116 | U100C U130C A136G | 1.79
117 | A59C U112A U132C | 0.95
118 | U115A U130C U132C | 0.98
119 | A57G A67G A69U | 0
120 | U104C A129U U143A | 2.07

Row | Variant | self-cleavage
121 | G10A U12C U14C A69G A79G G82A G89A | 0.12
122 | A30U G33U A78G A138U | 0.95
123 | G34U U91C A121C | 1.09
124 | G21A U47C U62C | 0.04
125 | A65G A67U A138G | 0.06
126 | U9C U45C A142G | 2.42
127 | U73A U108C U143C | 2.41
128 | U9A A50U G53A C71U U108C | 0.17
129 | G4A U14C A31U U81C | 0
130 | G32A U109G U134A | 0.52
131 | U26C U39A A57G A67U A117G | 0
132 | G41A U46C A57G | 0.82
133 | A30U A64C A65G | 0
134 | A42U A94G G125U | 0.24
135 | U1A U26C G72A A78G | 1.15
136 | U115C A124G U130C | 2.76
137 | U26A C103U U119C U143A | 1.32
138 | U45C U100C U109C | 1.7
139 | U29C U91C A107G | 0.77
140 | A77G U108G A142G | 1.36
141 | A22U U45A A57G G60A U115A A138U A140C A142G | 0
142 | G11U U15C A59G U87C | 0.34
143 | U12C A79G U85A A136G A141G | 0.24
144 | U26C U47C U132A A136G | 1.02

Row | Variant | self-cleavage
145 | U14A A64G U100C U134G | 0.33
146 | G58U U104C A117G A121C A142G | 0.08
147 | U23C U26G A69U | 0.39
148 | U9C U14C G74U A77U | 1.48
149 | U46C U112A U130A | 2.68
150 | G72A U109A A140G | 1.47
151 | U26C U96C G114U | 0.08
152 | U15A U62C U81C C84U A129G | 0
153 | U47C A107G U134A | 2.15
154 | A43U G55A U104A | 0.07
155 | A67G U85A U100A C111U | 0.07
156 | U119G A129G A141G | 0.92
157 | C38U U85C G122U | 0.15
158 | U87A A92G U96C A117G | 0
159 | A2G C103U A124G A138U | 2.3
160 | U39C G72U A77G G97U | 0.03
161 | U12A G48U U62C U100C | 0
162 | A31U A50G A141G | 0.57
163 | G7A U85C U119A A124G | 0
164 | A42G U46A G89U | 0.02
165 | U14C U45C U143C | 1.62
166 | C98U A136G U143C | 0.58
167 | U20A G114A U115C U143C | 1.75
